# Measurements from the supplement of paper PMC8728848.
# The list shows a part of the results.
# B1: Gal 3C (Homo sapiens), P17931 (protein)
# chain: YGAPAGPLIVPYNLPLPGGVVPRMLITILGTVKPNANRIALDFQRGNDVAFHFNPRFNENNRRVIVCNTKLDNNWGREERQSVFPFESGKPFKIQVLVEPDHFKVAVNDAHLLQYNHRVKKLNEISKLGISGDIDLTSASYTMI
# Key:
# Experiment in all cases: glycan array binding signal (z-score within array); higher = stronger binding
# Settings in all cases: glycan notation: IUPAC condensed, linker removed
# [1] = biological target: Neu5Ac(a2-3)Gal6S(b1-4)[Fuc(a1-3)]GlcNAc
# In short: (§1)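 The Consortium for Functional Glycomics database supplied 3228 glycan arrays, of which those lacking an available protein sequence were dropped. The binding signal, a within-array Z-score, was averaged across arrays of the same protein sequence and across linkers. Negative scores can be read as non-binding.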
# Neu5Ac(a2-3)GalNAc = biological target: Neu5Ac(a2-3)GalNAc
# In short: as §1
# [2] = biological target: Neu5Ac(a2-3)GalNAc(b1-4)GlcNAc
# In short: as §1
# [3] = biological target: Neu5Ac(a2-3)[GalNAc(b1-4)]Gal(b1-4)Glc
# In short: as §1
# [4] = biological target: Neu5Ac(a2-3)[GalNAc(b1-4)]Gal(b1-4)GlcNAc
# In short: as §1
# [5] = biological target: Neu5Ac(a2-3)[GalNAc(b1-4)]Gal(b1-4)GlcNAc(b1-3)GalNAc
# In short: as §1
# [6] = biological target: Neu5Ac(a2-3)[Neu5Ac(a2-6)]GalNAc
# In short: as §1
# Neu5Ac(a2-6)Gal = biological target: Neu5Ac(a2-6)Gal
# In short: as §1
# [7] = biological target: Neu5Ac(a2-6)Gal(b1-3)GlcNAc(b1-3)[Gal(b1-4)GlcNAc(b1-6)]Gal(b1-4)Glc
# In short: as §1
# Neu5Ac(a2-6)Gal(b1-4)Glc = biological target: Neu5Ac(a2-6)Gal(b1-4)Glc
# In short: as §1
# [8] = biological target: Neu5Ac(a2-6)Gal(b1-4)GlcNAc
# In short: as §1
# [9] = biological target: Neu5Ac(a2-6)Gal(b1-4)GlcNAc(b1-2)Man
# In short: as §1
# [10] = biological target: Neu5Ac(a2-6)Gal(b1-4)GlcNAc(b1-2)Man(a1-3)Man(b1-4)GlcNAc(b1-4)GlcNAc
# In short: as §1
# [11] = biological target: Neu5Ac(a2-6)Gal(b1-4)GlcNAc(b1-2)Man(a1-3)[Gal(b1-4)GlcNAc(b1-2)Man(a1-6)]Man(b1-4)GlcNAc(b1-4)GlcNAc
# In short: as §1
# [12] = biological target: Neu5Ac(a2-6)Gal(b1-4)GlcNAc(b1-2)Man(a1-3)[GlcNAc(b1-2)Man(a1-6)]Man(b1-4)GlcNAc(b1-4)GlcNAc
# In short: as §1
# [13] = biological target: Neu5Ac(a2-6)Gal(b1-4)GlcNAc(b1-2)Man(a1-3)[GlcNAc(b1-4)][Neu5Ac(a2-6)Gal(b1-4)GlcNAc(b1-2)Man(a1-6)]Man(b1-4)GlcNAc(b1-4)GlcNAc
# In short: as §1
# [14] = biological target: Neu5Ac(a2-6)Gal(b1-4)GlcNAc(b1-2)Man(a1-3)[Man(a1-6)]Man(b1-4)GlcNAc(b1-4)GlcNAc
# In short: as §1
# [15] = biological target: Neu5Ac(a2-6)Gal(b1-4)GlcNAc(b1-2)Man(a1-3)[Neu5Ac(a2-3)Gal(b1-4)GlcNAc(b1-2)Man(a1-6)]Man(b1-4)GlcNAc(b1-4)GlcNAc
# In short: as §1
# [16] = biological target: Neu5Ac(a2-6)Gal(b1-4)GlcNAc(b1-2)Man(a1-3)[Neu5Ac(a2-6)Gal(b1-4)GlcNAc(b1-2)Man(a1-6)]Man(b1-4)GlcNAc(b1-4)GlcNAc
# In short: as §1
# [17] = biological target: Neu5Ac(a2-6)Gal(b1-4)GlcNAc(b1-2)Man(a1-3)[Neu5Ac(a2-6)Gal(b1-4)GlcNAc(b1-2)Man(a1-6)]Man(b1-4)GlcNAc(b1-4)[Fuc(a1-6)]GlcNAc
# In short: as §1
# [18] = biological target: Neu5Ac(a2-6)Gal(b1-4)GlcNAc(b1-2)Man(a1-6)Man(b1-4)GlcNAc(b1-4)GlcNAc
# In short: as §1
# [19] = biological target: Neu5Ac(a2-6)Gal(b1-4)GlcNAc(b1-2)Man(a1-6)[Gal(b1-4)GlcNAc(b1-2)Man(a1-3)]Man(b1-4)GlcNAc(b1-4)GlcNAc
# In short: as §1
# [20] = biological target: Neu5Ac(a2-6)Gal(b1-4)GlcNAc(b1-2)Man(a1-6)[GlcNAc(b1-2)Man(a1-3)]Man(b1-4)GlcNAc(b1-4)GlcNAc
# In short: as §1
# [21] = biological target: Neu5Ac(a2-6)Gal(b1-4)GlcNAc(b1-2)Man(a1-6)[Man(a1-3)]Man(b1-4)GlcNAc(b1-4)GlcNAc
# In short: as §1
# [22] = biological target: Neu5Ac(a2-6)Gal(b1-4)GlcNAc(b1-2)[Neu5Ac(a2-6)Gal(b1-4)GlcNAc(b1-4)]Man(a1-3)[GlcNAc(b1-4)][Neu5Ac(a2-6)Gal(b1-4)GlcNAc(b1-2)[Neu5Ac(a2-6)Gal(b1-4)GlcNAc(b1-6)]Man(a1-6)]Man(b1-4)GlcNAc(b1-4)GlcNAc
# In short: as §1
# [23] = biological target: Neu5Ac(a2-6)Gal(b1-4)GlcNAc(b1-2)[Neu5Ac(a2-6)Gal(b1-4)GlcNAc(b1-4)]Man(a1-3)[GlcNAc(b1-4)][Neu5Ac(a2-6)Gal(b1-4)GlcNAc(b1-4)Man(a1-6)]Man(b1-4)GlcNAc(b1-4)GlcNAc
# In short: as §1
# [24] = biological target: Neu5Ac(a2-6)Gal(b1-4)GlcNAc(b1-2)[Neu5Ac(a2-6)Gal(b1-4)GlcNAc(b1-6)]Man(a1-6)[Neu5Ac(a2-6)Gal(b1-4)GlcNAc(b1-2)Man(a1-3)][GlcNAc(b1-4)]Man(b1-4)GlcNAc(b1-4)GlcNAc
# In short: as §1
# [25] = biological target: Neu5Ac(a2-6)Gal(b1-4)GlcNAc(b1-3)Gal(b1-3)GlcNAc
# In short: as §1
# [26] = biological target: Neu5Ac(a2-6)Gal(b1-4)GlcNAc(b1-3)Gal(b1-4)GlcNAc
# In short: as §1
# [27] = biological target: Neu5Ac(a2-6)Gal(b1-4)GlcNAc(b1-3)Gal(b1-4)GlcNAc(b1-2)Man(a1-3)[Neu5Ac(a2-6)Gal(b1-4)GlcNAc(b1-3)Gal(b1-4)GlcNAc(b1-2)Man(a1-6)]GalNAc
# In short: as §1
# [28] = biological target: Neu5Ac(a2-6)Gal(b1-4)GlcNAc(b1-3)Gal(b1-4)GlcNAc(b1-3)Gal(b1-4)GlcNAc
# In short: as §1
# [29] = biological target: Neu5Ac(a2-6)Gal(b1-4)GlcNAc(b1-3)Gal(b1-4)GlcNAc(b1-3)Gal(b1-4)GlcNAc(b1-2)Man(a1-3)[Neu5Ac(a2-6)Gal(b1-4)GlcNAc(b1-3)Gal(b1-4)GlcNAc(b1-3)Gal(b1-4)GlcNAc(b1-2)Man(a1-6)]GalNAc
# In short: as §1
# [30] = biological target: Neu5Ac(a2-6)Gal(b1-4)GlcNAc(b1-3)Gal(b1-4)GlcNAc(b1-3)GalNAc
# In short: as §1
# [31] = biological target: Neu5Ac(a2-6)Gal(b1-4)GlcNAc(b1-3)Gal(b1-4)GlcNAc(b1-3)[Neu5Ac(a2-6)Gal(b1-4)GlcNAc(b1-3)Gal(b1-4)GlcNAc(b1-6)]GalNAc
# In short: as §1
# [32] = biological target: Neu5Ac(a2-6)Gal(b1-4)GlcNAc(b1-3)Gal(b1-4)GlcNAc(b1-6)[Gal(b1-3)]GalNAc
# In short: as §1
# [33] = biological target: Neu5Ac(a2-6)Gal(b1-4)GlcNAc(b1-3)Gal(b1-4)[Fuc(a1-3)]GlcNAc(b1-3)Gal(b1-4)[Fuc(a1-3)]GlcNAc
# In short: as §1
# [34] = biological target: Neu5Ac(a2-6)Gal(b1-4)GlcNAc(b1-3)GalNAc
# In short: as §1
# [35] = biological target: Neu5Ac(a2-6)Gal(b1-4)GlcNAc(b1-3)[Neu5Ac(a2-6)Gal(b1-4)GlcNAc(b1-6)]GalNAc
# In short: as §1
# [36] = biological target: Neu5Ac(a2-6)Gal(b1-4)GlcNAc(b1-6)GalNAc
# In short: as §1
# [37] = biological target: Neu5Ac(a2-6)Gal(b1-4)GlcNAc(b1-6)[Gal(b1-3)GlcNAc(b1-3)]Gal(b1-4)Glc
# In short: as §1
# [38] = biological target: Neu5Ac(a2-6)Gal(b1-4)GlcNAc(b1-6)[Gal(b1-3)]GalNAc
# In short: as §1
# [39] = biological target: Neu5Ac(a2-6)Gal(b1-4)GlcNAc6S
# In short: as §1
# Neu5Ac(a2-6)GalNAc = biological target: Neu5Ac(a2-6)GalNAc
# In short: as §1
# [40] = biological target: Neu5Ac(a2-6)GalNAc(b1-4)GlcNAc
# In short: as §1
# [41] = biological target: Neu5Ac(a2-6)GalNAc(b1-4)GlcNAc6S
# In short: as §1
binder,measurement,setting,value
B1,glycan array binding signal (z-score),[1],-0.327
same,glycan array binding signal (z-score),Neu5Ac(a2-3)GalNAc,-0.317
same,glycan array binding signal (z-score),[2],-0.261
same,glycan array binding signal (z-score),[3],-0.353
same,glycan array binding signal (z-score),[4],-0.269
same,glycan array binding signal (z-score),[5],-0.029
same,glycan array binding signal (z-score),[6],-0.307
same,glycan array binding signal (z-score),Neu5Ac(a2-6)Gal,-0.252
same,glycan array binding signal (z-score),[7],-0.3
same,glycan array binding signal (z-score),Neu5Ac(a2-6)Gal(b1-4)Glc,-0.309
same,glycan array binding signal (z-score),[8],-0.257
same,glycan array binding signal (z-score),[9],-0.302
same,glycan array binding signal (z-score),[10],-0.23
same,glycan array binding signal (z-score),[11],-0.278
same,glycan array binding signal (z-score),[12],-0.344
same,glycan array binding signal (z-score),[13],-0.273
same,glycan array binding signal (z-score),[14],-0.367
same,glycan array binding signal (z-score),[15],-0.35
same,glycan array binding signal (z-score),[16],-0.279
same,glycan array binding signal (z-score),[17],-0.297
same,glycan array binding signal (z-score),[18],-0.334
same,glycan array binding signal (z-score),[19],-0.211
same,glycan array binding signal (z-score),[20],-0.222
same,glycan array binding signal (z-score),[21],-0.27
same,glycan array binding signal (z-score),[22],-0.253
same,glycan array binding signal (z-score),[23],-0.297
same,glycan array binding signal (z-score),[24],-0.33
same,glycan array binding signal (z-score),[25],-0.151
same,glycan array binding signal (z-score),[26],-0.172
same,glycan array binding signal (z-score),[27],0.534
same,glycan array binding signal (z-score),[28],0.648
same,glycan array binding signal (z-score),[29],0.38
same,glycan array binding signal (z-score),[30],-0.192
same,glycan array binding signal (z-score),[31],0.309
same,glycan array binding signal (z-score),[32],-0.114
same,glycan array binding signal (z-score),[33],-0.288
same,glycan array binding signal (z-score),[34],-0.275
same,glycan array binding signal (z-score),[35],-0.353
same,glycan array binding signal (z-score),[36],-0.291
same,glycan array binding signal (z-score),[37],-0.354
same,glycan array binding signal (z-score),[38],-0.317
same,glycan array binding signal (z-score),[39],-0.32
same,glycan array binding signal (z-score),Neu5Ac(a2-6)GalNAc,-0.284
same,glycan array binding signal (z-score),[40],-0.355
same,glycan array binding signal (z-score),[41],-0.248
